Reference: the supplement of paper PMC6089552
Hit rate of the full screen: of about 3,200 compounds, about 300 (9.4%) showed activity. Only a part is listed here, and it is no random draw.

Tested on: A673/TR/shEF
Experiment: cell viability (LOESS-normalised, relative to median of negative controls) (log2 ratio); higher = more viable cells (less compound effect), active = hit call of the paper (over 3 MAD below the median)
Details: treatment time: 72 h
In short: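 A673/TR/shEF Ewing sarcoma cells were plated at 1,500 per well in 384-well plates and cultured with or without doxycycline, added 24 h before compounds, to induce EWS-FLI1 shRNA knockdown. Library compounds at two or more concentrations, alongside DMSO controls, were applied for three days. Cell viability was measured by CellTiter-Glo luminescence on an Envision reader. Readings were LOESS-corrected per plate, divided by the median of negative controls and log2-transformed, and hits were wells lying at least three median absolute deviations from the median of all screened wells.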

[1] = 0.25 µM, library screen: screen1, EWS-FLI1 expression: high (no doxycycline)
[2] = 0.25 µM, library screen: screen1, EWS-FLI1 expression: low (doxycycline-induced shRNA knockdown)
[3] = 2.5 µM, library screen: screen1, EWS-FLI1 expression: high (no doxycycline)
[4] = 2.5 µM, library screen: screen1, EWS-FLI1 expression: low (doxycycline-induced shRNA knockdown)
[5] = 0.103 µM, library screen: screen3, EWS-FLI1 expression: high (no doxycycline)
[6] = 0.103 µM, library screen: screen3, EWS-FLI1 expression: low (doxycycline-induced shRNA knockdown)
[7] = 0.308 µM, library screen: screen3, EWS-FLI1 expression: high (no doxycycline)
[8] = 0.308 µM, library screen: screen3, EWS-FLI1 expression: low (doxycycline-induced shRNA knockdown)
[9] = 0.926 µM, library screen: screen3, EWS-FLI1 expression: high (no doxycycline)
[10] = 0.926 µM, library screen: screen3, EWS-FLI1 expression: low (doxycycline-induced shRNA knockdown)
[11] = 2.8 µM, library screen: screen3, EWS-FLI1 expression: high (no doxycycline)
[12] = 2.8 µM, library screen: screen3, EWS-FLI1 expression: low (doxycycline-induced shRNA knockdown)
[13] = 8.3 µM, library screen: screen3, EWS-FLI1 expression: high (no doxycycline)
[14] = 8.3 µM, library screen: screen3, EWS-FLI1 expression: low (doxycycline-induced shRNA knockdown)
[15] = 25 µM, library screen: screen3, EWS-FLI1 expression: high (no doxycycline)
[16] = 25 µM, library screen: screen3, EWS-FLI1 expression: low (doxycycline-induced shRNA knockdown)
[17] = 0.25 µM, library screen: screen2, EWS-FLI1 expression: high (no doxycycline)
[18] = 0.25 µM, library screen: screen2, EWS-FLI1 expression: low (doxycycline-induced shRNA knockdown)
[19] = 2.5 µM, library screen: screen2, EWS-FLI1 expression: high (no doxycycline)
[20] = 2.5 µM, library screen: screen2, EWS-FLI1 expression: low (doxycycline-induced shRNA knockdown)

Measured: cell viability (log2)

O=C(O)CCCc1ccccc1
inactive: [1] 0.0233 | [2] 0.0277 | [3] 0.116 | [4] 0.0391

NC1=NCCN1CC(=O)O
inactive: [1] 0.117 | [2] 0.0775 | [3] 0.147 | [4] 0.164

CCOC(=O)c1c[nH]c2ccc(OC)cc2c1=O
inactive: [1] 0.15 | [2] 0.1 | [3] 0.112 | [4] 0.121

CC1(C)O[C@@H]2C[C@H]3[C@@H]4CCC5=CC(=O)C=C[C@]5(C)[C@@]4(F)[C@@H](O)C[C@]3(C)[C@]2(C(=O)CO)O1
inactive: [5] 0.0656 | [6] 0.104 | [1] 0.0257 | [2] -0.0565 | [7] 0.0762 | [8] 0.111 | [9] 0.162 | [10] 0.122 | [3] 0.09 | [4] -0.0295 | [11] 0.14 | [12] -0.00422 | [13] 0.119 | [14] 0.168 | [15] 0.259 | [16] 0.177

C[C@@H]1C[C@H]2[C@@H]3CCC4=CC(=O)C=C[C@]4(C)[C@@]3(F)[C@@H](O)C[C@]2(C)[C@@]1(O)C(=O)CO
inactive: [5] 0.0598 | [6] 0.177 | [1] 0.11 | [2] -0.0113 | [7] 0.111 | [8] 0.103 | [9] 0.0724 | [10] 0.168 | [3] 0.141 | [4] 0.0408 | [11] 0.0352 | [12] 0.11 | [13] 0.0764 | [14] 0.0807 | [15] 0.0649 | [16] 0.143

Cc1nnc(NS(=O)(=O)c2ccc(N)cc2)s1
inactive: [1] -0.0282 | [2] 0.0359 | [3] 0.106 | [4] 0.133

COc1cc(NS(C)(=O)=O)ccc1Nc1c2ccccc2nc2ccccc12
inactive: [17] 0.0671 | [18] 0.0709 | [19] 0.127 | [20] 0.101

CC(=O)Oc1cc2c(c(C)c1OC(C)=O)CC=C1[C@@]2(C)CC[C@@]2(C)[C@@H]3C[C@](C)(C(=O)O)CC[C@]3(C)CC[C@]12C
inactive: [1] 0.0258 | [2] 0.000386 | [3] 0.0381 | [4] 0.209

CC1CC(OC(=O)C(O)c2ccccc2)CC(C)(C)N1C (stereo not drawn)
inactive: [1] 0.097 | [2] 0.00654 | [3] 0.168 | [4] 0.0635

OC[C@H]1O[C@@H](n2cnc3c(NCc4ccco4)ncnc32)[C@H](O)[C@@H]1O
inactive: [1] 0.0742 | [2] 0.00708 | [3] 0.109 | [4] 0.0328

COc1ccc(CN2CCN(Cc3ccc(OC)c(OC)c3OC)CC2)cc1OC
inactive: [1] 0.061 | [2] 0.00924 | [3] 0.123 | [4] 0.0982

CCC(=O)c1c(O)cc(O)cc1O
inactive: [1] 0.0593 | [2] 0.0934 | [3] 0.167 | [4] 0.156

CC1Cc2ccccc2N1NC(=O)c1ccc(Cl)c(S(N)(=O)=O)c1 (stereo not drawn)
inactive: [5] 0.0865 | [6] 0.0898 | [1] 0.0475 | [2] 0.0682 | [7] 0.106 | [8] 0.108 | [9] 0.122 | [10] 0.127 | [3] 0.165 | [4] 0.191 | [11] 0.17 | [12] 0.0819 | [13] 0.13 | [14] 0.112 | [15] 0.152 | [16] 0.13

CC(C)(C)[C@]1(O)CCN2C[C@H]3c4ccccc4CCc4cccc(c43)[C@@H]2C1
inactive: [17] 0.211 | [18] 0.104 | [19] 0.187 | [20] 0.0457

CN1CCN(CCOc2cc(OC3CCOCC3)c3c(Nc4c(Cl)ccc5c4OCO5)ncnc3c2)CC1
active: [13] -0.339 | [14] -0.15 | [15] -0.476 | [16] -0.808

CO/N=C(\C(=O)N[C@@H]1C(=O)N2C(C(=O)O)=C(COC(N)=O)CS[C@H]12)c1ccco1
inactive: [1] 0.118 | [2] 0.097 | [3] 0.0783 | [4] 0.119

Nc1ccc(S(=O)(=O)Nc2ccnn2-c2ccccc2)cc1
inactive: [1] 0.0545 | [2] -0.0171 | [17] 0.053 | [18] 0.048 | [3] 0.14 | [4] 0.0403
active: [19] -0.179 | [20] -0.12
